Source: PubChem BioAssay AID1347417 (National Center for Advancing Translational Sciences (NCATS), 2020)
About 5,300 (4.4%) of roughly 120,000 compounds were called active. The shares of active, inactive and inconclusive entries below differ from those in the screen. Calls come from the whole dose curve; as a rule, active = well fitted inhibition curve with a large enough effect; inconclusive = small, poorly fitted or top-dose-only effect; inactive = no such curve, though single readings can be large or run the other way. A potency beside an inconclusive call is a rough fit, not a confirmed value.

assay: qHTS Primary assay for Inhibitors of Plasmodium falciparum Dd2 growth in vitro; note: nearly all actives have a fitted effect of over 65% in size;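 for activity, negative = inhibition: plate controls were DMSO vehicle for no effect and reference drug for full effect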; settings: P. falciparum Dd2 growth, SYBR Green, 72 h; activity, negative = inhibition: at 28.9 µM (top of the series) unless noted; series mostly up to 28.9 µM
Procedure, shortened: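 Readout: SYBR Green fluorescence, 485 nm excitation, 535 nm emission, after ~16 h lysis at 37C. Before that, Dd2-infected red cells (2.5% hematocrit) grew 72 h with compound, 29 uM top final concentration.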
Potency is the fitted concentration of half-maximal effect; tags give direction and shape of the fitted curve.

| SMILES | activity, negative = inhibition | outcome | Potency |
| --- | --- | --- | --- |
| Cc1ccc(NC(=O)N2CCCN(S(=O)(=O)c3ccccc3)CCC(=O)NCC2)cc1C | inactive: -27.5% | – | – |
| CCCCCNC(=O)Cc1csc2nc(C)c(-c3cc(C)n(-c4cc(F)ccc4C)n3)c(=O)n12 | inactive: -12.6% | – | – |
| COc1ccc(NC(=O)N[C@@H]2C=C[C@@H](c3c(C)nn(CCC#N)c3C)C2)cc1 | – | inactive [at 44.1 µM] | – |
| CCC(C)NC(=O)C(NC(=O)c1ccc(C)cc1)C1CCN(C(=O)CC(C)(C)C)CC1 (stereo not given) | – | – | inconclusive: 7.94 µM [inhibitor, partial curve] |
| CCc1ccc(C(=O)c2cn(CC(=O)Nc3ccc4c(c3)OCO4)c3ccc(F)cc3c2=O)cc1 | – | – | inconclusive: 1 µM [inhibitor, partial curve] |
| COc1ccc(N2CCN(C(=O)CN3C(=O)C(c4ccccc4)=NC3(C)C)CC2)cc1 | – | – | inconclusive: 2.82 µM [inhibitor, full curve, poor fit] |
| O=C(c1ccncc1)N1CCC2(CC1)CC(N(Cc1ccccc1)C1CC1)CCO2 (stereo not given) | – | – | inconclusive: 10 µM [inhibitor, single point] |
| Cc1ccc(C(=O)Nc2cccc(-c3nnc4n3CCCC4)c2)cc1 | – | – | inconclusive: 5.62 µM [inhibitor, partial curve, poor fit] |
| CC1(c2ccccc2)N(Cc2ccccc2)C(=O)OC12CCN(c1ccncc1)CC2 (stereo not given) | – | – | inconclusive: 0.282 µM [inhibitor, single point] |
| CC[C@H]1CN2CC[C@H]1C[C@@H]2CNC(=O)Nc1ccc(Br)cc1 | inactive: -18.6% [at 44.1 µM] | – | – |
| Cc1cccc(Cn2nc(C3CCCNC3)n(-c3ccccc3)c2=O)c1 (stereo not given) | – | – | inconclusive: 7.94 µM [inhibitor, partial curve] |
| COc1ccc(C(=O)Nc2nc3n(n2)C(c2ccc(Cl)cc2)C=C(c2ccccc2)N3)cc1OC (stereo not given) | – | – | active: 7.94 µM |
| Cc1ccc(Nc2sc(C(=O)c3ccc(F)cc3)c(N)c2S(=O)(=O)c2ccc(C)cc2)cc1 | – | – | inconclusive: 11.2 µM [inhibitor, single point] |
| COc1ccc(C(=O)N2CCC(n3c(C)cnc3-c3ccccc3)CC2)c(OC)c1 | – | – | inconclusive: 0.0708 µM [inhibitor, full curve, poor fit] |
| COc1ccc(-n2c(=O)c3ccccc3n(Cc3ccccc3Cl)c2=O)cc1 | inactive: 10.2% | – | – |
| CC(Sc1nc(=O)cc(N)n1CCc1ccccc1)C(=O)Nc1cccc(Cl)c1 (stereo not given) | – | – | inconclusive: 11.2 µM [inhibitor, single point] |
| O=C(O)[C@H]1C[C@H](C(=O)NCc2ccccn2)CN(Cc2ccccc2)C1 | inactive: -6.24% | – | – |
| Cc1noc(C)c1CC(=O)NC1CCCc2c1[nH]c1c(Cl)cccc21 (stereo not given) | – | – | active: 7.94 µM |
| O=[S+]([O-])(c1cccc(C(F)(F)F)c1)N1CCN(c2nc3ncccc3o2)CC1 | inactive: -14.1% | – | – |
| C[C@]1(CO)[C@H]2Cc3sc(NC(=O)C4CCCCC4)nc3[C@@H](CC(=O)NCc3cccnc3)[C@]2(C)CC[C@H]1O | – | – | inconclusive: 1 µM [inhibitor, full curve, poor fit] |
| Cc1ccc(-n2ncc(C(=O)NC3CCN(Cc4ccccc4)CC3)c2C2CCN(C(=O)OC(C)(C)C)CC2)cc1C | – | inactive | – |
| CCCS(=O)(=O)Nc1cc(-c2cn3ccc(C)cc3n2)ccc1C | – | – | inconclusive: 14.1 µM [inhibitor, single point] |

| SMILES | activity, negative = inhibition | outcome | Potency |
| --- | --- | --- | --- |
| O=C(Nc1ccc2nc(SCC(=O)N3CCCc4ccccc43)sc2c1)c1ccc(Cl)cc1 | – | – | inconclusive: 11.2 µM [inhibitor, single point] |
| COc1ccc(CN(C)CC2CCN(CCc3ccc(F)cc3)CC2)cc1Cn1cccn1 | – | – | active: 10 µM |
| O=C([C@@H]1C[C@H](Oc2ccccc2)CN1C(=O)C1CCCCC1)N1CCCC1 | inactive: -23.6% | – | – |
| O=C(Nc1ccccc1Cl)c1cc2c(-c3ccccc3)nn(-c3ccccc3)c2s1 | – | – | inconclusive: 12.6 µM [inhibitor, single point] |
| CCc1ccc2c(c1)NC(c1cccnc1)=NC(c1ccc(C(C)(C)C)cc1)=N2 | – | – | inconclusive: 15.8 µM [inhibitor, single point] |
| O=C(CC1CCCN(c2cn[nH]c(=O)c2)C1)N1CC=C(c2ccccc2)CC1 (stereo not given) | – | – | inconclusive: 17.8 µM [inhibitor, single point] |
| Cc1ccccc1C(=O)N1C(C(=O)NCC2CCCO2)COC12CCC(C)CC2 (stereo not given) | – | – | inconclusive: 3.98 µM [inhibitor, single point] |
| O=C1CCN(C(=O)C2CCN(S(=O)(=O)c3ccc4c(c3)CCC4)CC2)CCCCCCN1 | – | – | inconclusive: 12.6 µM [inhibitor, partial curve, poor fit] |
| CCC(C(=O)Nc1ccc2c(c1)CN(Cc1ccccc1OC)C(=O)C(C)O2)c1ccccc1 (stereo not given) | – | – | active: 2.51 µM |
| OC1(CN2CCCN(c3nc4ccccc4s3)CC2)CNCCOC1 (stereo not given) | – | – | active: 8.91 µM |
| Cc1noc(C)c1-c1cc2c(cc(-c3ccccc3)n2C)c(Nc2ccncn2)n1 | – | – | inconclusive: 2.24 µM [inhibitor, partial curve, poor fit] |
| CCc1cc(=O)n(CC(=O)Nc2ccc(OC)cc2)c(-c2cccc(F)c2)n1 | – | – | inconclusive: 10 µM [inhibitor, single point] |
| CSc1ccc(CCNC(=O)c2ccc(-n3c(C)cc4c3CCCC4)cc2)cc1 | – | – | inconclusive: 3.55 µM [inhibitor, single point] |
| COc1ccc(CN2Cc3[nH]cnc3C[C@H]2c2nc(-c3ccc(C(F)(F)F)cc3)no2)cc1 | inactive: -8.92% | – | – |
| Cc1oc2c(c1C(=O)NCCN1CCCC1)CN(Cc1ccc(F)cc1)CC2 | – | – | inconclusive: 5.01 µM [inhibitor, partial curve, poor fit] |
| Fc1cccc(Nc2ncc(-c3cccnc3)c3c2OCC3)c1 | – | – | inconclusive: 31.6 µM [inhibitor, single point] |
| COc1cc(OCc2ccccc2)ccc1CN1CC[C@@]2(O)CCNC[C@H]2C1 | – | – | inconclusive: 11.2 µM [inhibitor, single point] |
| COCCCN1CC2(CCN(CC(=O)N3CCNCC3)CC2)CC1=O | inactive: 3.53% | – | – |
| CSCCC(=O)N[C@H]1CC[C@H]1NC1CCN(C(=O)c2cnccn2)CC1 | inactive: -8.77% | – | – |
| CN(C)C[C@@H]1CN(S(C)(=O)=O)C[C@H]1NC(=O)COc1ccc(Cl)cc1 | – | – | inconclusive: 8.91 µM [inhibitor, single point] |
| CCn1ccc(C(=O)NCCc2noc(-c3cccnc3)n2)n1 | inactive: 40.2% | – | – |
| COc1cccc2c1Oc1ncccc1N(c1ccc(C(=O)NCc3cccc(C)c3)s1)C2 | – | – | inconclusive: 11.2 µM [inhibitor, single point] |

| SMILES | activity, negative = inhibition | outcome | Potency |
| --- | --- | --- | --- |
| COC(=O)C(CCSC)NC(=O)c1cc2c(n(-c3ccc(OC)cc3)c1=O)CC(C)(C)CC2=O (stereo not given) | – | – | inconclusive: 8.91 µM [inhibitor, partial curve, poor fit] |
| CC(C)CN1CCN(C(=O)c2ccc3c(c2)CC(=O)N3Cc2ccc(F)cc2)CC1 | – | – | inconclusive: 1 µM [inhibitor, full curve, poor fit] |
| Cc1cc(C)cc(NC(=O)N2CCCC(c3noc(COc4ccccc4)n3)C2)c1 (stereo not given) | – | – | inconclusive: 10 µM [inhibitor, partial curve, poor fit] |
| CCc1nncn1C1CCN(S(=O)(=O)c2cccc(OC)c2)CC1 | – | – | inconclusive: 2.51 µM [inhibitor, partial curve, poor fit] |
| COc1cc(OC)cc(-c2onc(C)c2C(=O)NC(C)CCc2ccccc2)c1 (stereo not given) | – | inactive | – |
| Cc1nnc2n1CCC(NC(=O)c1cccn1C)CC2 (stereo not given) | inactive: 28.4% | – | – |
| COc1ccc2[nH]cc(CCNC(=O)C3Cn4cccc4C(=O)N3Cc3ccccc3)c2c1 (stereo not given) | – | – | inconclusive: 11.2 µM [inhibitor, single point] |
| c1ccc(CN2CCNc3cc(Nc4ccc(N5CCOCC5)cc4)ncc3C2)cc1 | – | – | active: 11.2 µM |
| O=C(Nc1cc(Cl)cc(Cl)c1)c1ccc(F)c(S(=O)(=O)NCc2ccccc2Cl)c1 | – | – | inconclusive: 14.1 µM [inhibitor, single point] |
| CCN(c1ccccc1)S(=O)(=O)c1nnc(NC(=O)c2ccco2)s1 | – | – | inconclusive: 17.8 µM [inhibitor, single point] |
| Cc1ccccc1-c1nnc(SCC(=O)N2CCCCC2)o1 | inconclusive: -40.2% [inhibitor] [at 0.594 µM] | – | – |
| COc1cc(OC)c(Nc2c3c(nc4nc(-c5cccs5)nn24)CCCC3)cc1Cl | – | – | active: 11.2 µM |
| CN(C)CCCC(=O)NC[C@@H]1CC[C@H]2C[C@@H]1C2(C)C | – | – | active: 10 µM |
| COC(=O)CCNC(=O)C1c2ccccc2C(=O)N(Cc2ccccc2)C12CCCC2 (stereo not given) | – | – | inconclusive: 17.8 µM [inhibitor, partial curve, poor fit] |
| COc1ccccc1CN1CCCn2nc(C)c(-c3cnccc3C)c21 | – | – | inconclusive: 10 µM [inhibitor, partial curve] |
| CCC(C)NC(=O)c1ccc2nc(Cc3ccccc3)oc2c1 (stereo not given) | – | – | inconclusive: 10 µM [inhibitor, single point] |
| FC(F)(F)c1cccc(C2=NOC3(CCN(Cc4ccsc4)C3)C2)c1 (stereo not given) | – | – | inconclusive: 7.94 µM [inhibitor, single point] |
| CC(C)Oc1ccc(CN2CCc3nc(N4CCN(C)CC4)[nH]c(=O)c3CC2)cc1 | inactive: 19.2% [at 5.79 µM] | – | – |
| COc1ccc(S(=O)(=O)N2C[C@@H]3C[C@H](C2)c2ccc(NC(=O)c4cnccn4)c(=O)n2C3)cc1 | inactive: 0.0549% | – | – |
| COc1ccc(-c2nc3cc(C)ccc3cc2CN2CCCC(C(N)=O)C2)cc1 (stereo not given) | – | – | inconclusive: 10 µM [inhibitor, single point] |
| CCNc1ncnc2sc3c(c12)CCN(C(=O)c1ccnn1C)C3 | – | – | active: 11.2 µM |
